This passage reports binding signal results from article PMC9911399, “Two distinct binding modes provide the RNA-binding protein RbFox with extraordinary sequence specificity”.

Numbering of substitutions follows the chain as printed; changes in the protein carry UniProt numbers. The list shows a part of the results.

To fix the notation:
T1: RBFOX1 RRM RbFoxmut (Fox-RRM*) (Homo sapiens, UniProt Q9NWB1 109-208, R118D;E147R;N151S;E152T)
T1 sequence: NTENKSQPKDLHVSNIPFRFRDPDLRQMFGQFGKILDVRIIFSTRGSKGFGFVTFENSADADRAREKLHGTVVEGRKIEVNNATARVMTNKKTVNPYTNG

B1: GCCGACU (DNA:RNA)
RNA: GGGAGACCGGAAUUCAGAUUGUCCGCCGACUUUAAAUCCCGUCGUAGCCACCA
DNA 1: CAATCTGAATTCCGGTCTCCC
DNA 2: TGGTGGCTACGACGGGATT
B2: GUCGCUG (DNA:RNA)
RNA: B1 RNA with C26U, A29C, C30U, U31G
DNA 1: CAATCTGAATTCCGGTCTCCC
DNA 2: TGGTGGCTACGACGGGATT
B3: AAUCUAG (DNA:RNA)
RNA: GGGAGACCGGAAUUCAGAUUGUCCAAUCUAGUUAAAUCCCGUCGUAGCCACCA
DNA 1: CAATCTGAATTCCGGTCTCCC
DNA 2: TGGTGGCTACGACGGGATT
B4: GGACUAC (DNA:RNA)
RNA: B3 RNA with A25G, A26G, U27A, G31C
DNA 1: CAATCTGAATTCCGGTCTCCC
DNA 2: TGGTGGCTACGACGGGATT
B5: GACCCGA (DNA:RNA)
RNA: B3 RNA with A25G, U27C, U29C, A30G, G31A
DNA 1: CAATCTGAATTCCGGTCTCCC
DNA 2: TGGTGGCTACGACGGGATT
B6: UUGCCUU (DNA:RNA)
RNA: B3 RNA with A25U, A26U, U27G, U29C, A30U, G31U
DNA 1: CAATCTGAATTCCGGTCTCCC
DNA 2: TGGTGGCTACGACGGGATT
B7: AUUGGAA (DNA:RNA)
RNA: B3 RNA with A26U, C28G, U29G, G31A
DNA 1: CAATCTGAATTCCGGTCTCCC
DNA 2: TGGTGGCTACGACGGGATT
B8: AGGAUUC (DNA:RNA)
RNA: B3 RNA with A26G, U27G, C28A, A30U, G31C
DNA 1: CAATCTGAATTCCGGTCTCCC
DNA 2: TGGTGGCTACGACGGGATT
B9: UCUAGUC (DNA:RNA)
RNA: B3 RNA with A25U, A26C, C28A, U29G, A30U, G31C
DNA 1: CAATCTGAATTCCGGTCTCCC
DNA 2: TGGTGGCTACGACGGGATT
B10: CGGCGAU (DNA:RNA)
RNA: B3 RNA with A25C, A26G, U27G, U29G, G31U
DNA 1: CAATCTGAATTCCGGTCTCCC
DNA 2: TGGTGGCTACGACGGGATT
B11: AGUCUUU (DNA:RNA)
RNA: B3 RNA with A26G, A30U, G31U
DNA 1: CAATCTGAATTCCGGTCTCCC
DNA 2: TGGTGGCTACGACGGGATT
B12: UGACUCU (DNA:RNA)
RNA: B3 RNA with A25U, A26G, U27A, A30C, G31U
DNA 1: CAATCTGAATTCCGGTCTCCC
DNA 2: TGGTGGCTACGACGGGATT
B13: UAUAUUC (DNA:RNA)
RNA: B3 RNA with A25U, C28A, A30U, G31C
DNA 1: CAATCTGAATTCCGGTCTCCC
DNA 2: TGGTGGCTACGACGGGATT
B14: GUUAUAC (DNA:RNA)
RNA: B3 RNA with A25G, A26U, C28A, G31C
DNA 1: CAATCTGAATTCCGGTCTCCC
DNA 2: TGGTGGCTACGACGGGATT
B15: CUGUAGU (DNA:RNA)
RNA: B1 RNA with G25C, C26U, C27G, G28U, C30G
DNA 1: CAATCTGAATTCCGGTCTCCC
DNA 2: TGGTGGCTACGACGGGATT
B16: GGCUUUC (DNA:RNA)
RNA: B1 RNA with C26G, G28U, A29U, C30U, U31C
DNA 1: CAATCTGAATTCCGGTCTCCC
DNA 2: TGGTGGCTACGACGGGATT
B17: ACCAGCU (DNA:RNA)
RNA: B1 RNA with G25A, G28A, A29G
DNA 1: CAATCTGAATTCCGGTCTCCC
DNA 2: TGGTGGCTACGACGGGATT
B18: ACCGUCC (DNA:RNA)
RNA: B1 RNA with G25A, A29U, U31C
DNA 1: CAATCTGAATTCCGGTCTCCC
DNA 2: TGGTGGCTACGACGGGATT
B19: CCGUUGG (DNA:RNA)
RNA: B3 RNA with A25C, A26C, U27G, C28U, A30G
DNA 1: CAATCTGAATTCCGGTCTCCC
DNA 2: TGGTGGCTACGACGGGATT
B20: CCCAGGU (DNA:RNA)
RNA: B1 RNA with G25C, G28A, A29G, C30G
DNA 1: CAATCTGAATTCCGGTCTCCC
DNA 2: TGGTGGCTACGACGGGATT
B21: GAACACA (DNA:RNA)
RNA: B1 RNA with C26A, C27A, G28C, U31A
DNA 1: CAATCTGAATTCCGGTCTCCC
DNA 2: TGGTGGCTACGACGGGATT
B22: GCUUUAA (DNA:RNA)
RNA: B3 RNA with A25G, A26C, C28U, G31A
DNA 1: CAATCTGAATTCCGGTCTCCC
DNA 2: TGGTGGCTACGACGGGATT
B23: GAUGUUG (DNA:RNA)
RNA: B3 RNA with A25G, C28G, A30U
DNA 1: CAATCTGAATTCCGGTCTCCC
DNA 2: TGGTGGCTACGACGGGATT
B24: ACACGCG (DNA:RNA)
RNA: B3 RNA with A26C, U27A, U29G, A30C
DNA 1: CAATCTGAATTCCGGTCTCCC
DNA 2: TGGTGGCTACGACGGGATT
B25: UCAGAAA (DNA:RNA)
RNA: B1 RNA with G25U, C27A, C30A, U31A
DNA 1: CAATCTGAATTCCGGTCTCCC
DNA 2: TGGTGGCTACGACGGGATT
B26: UUUGCCA (DNA:RNA)
RNA: B1 RNA with G25U, C26U, C27U, A29C, U31A
DNA 1: CAATCTGAATTCCGGTCTCCC
DNA 2: TGGTGGCTACGACGGGATT
B27: CGUAAUC (DNA:RNA)
RNA: B3 RNA with A25C, A26G, C28A, U29A, A30U, G31C
DNA 1: CAATCTGAATTCCGGTCTCCC
DNA 2: TGGTGGCTACGACGGGATT
B28: GAUGUAC (DNA:RNA)
RNA: B3 RNA with A25G, C28G, G31C
DNA 1: CAATCTGAATTCCGGTCTCCC
DNA 2: TGGTGGCTACGACGGGATT
B29: CAUCUUC (DNA:RNA)
RNA: B3 RNA with A25C, A30U, G31C
DNA 1: CAATCTGAATTCCGGTCTCCC
DNA 2: TGGTGGCTACGACGGGATT
B30: GGAGAUA (DNA:RNA)
RNA: B1 RNA with C26G, C27A, C30U, U31A
DNA 1: CAATCTGAATTCCGGTCTCCC
DNA 2: TGGTGGCTACGACGGGATT
B31: AGGAUCU (DNA:RNA)
RNA: B3 RNA with A26G, U27G, C28A, A30C, G31U
DNA 1: CAATCTGAATTCCGGTCTCCC
DNA 2: TGGTGGCTACGACGGGATT

The target of this assay is T1, RBFOX1 RRM RbFoxmut (Fox-RRM*). The experiment in a line: EMSA; HiTS-Eq, 1 nM pool, 10 min; buffer printed only for the single-RNA assays: 10 mM Tris pH 7.5, 150 mM NaCl, 3.4 mM EDTA, 0.001% NP-40, 30 C. The following applies: tags: His6 N-terminal (pET28a); label: 5' 32P. The method, boiled down:
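Purified RbFox RRM, wild type or mutant, was incubated for 10 min in 50 µL with 1 nM of a 5′-radiolabelled RNA pool carrying 7 randomized nucleotides, whose flanks were annealed to DNA oligonucleotides, over a series of increasing protein concentrations. Unbound RNA was resolved on 8% native PAGE, cut out, reverse-transcribed, barcoded by PCR and sequenced on an Illumina HiSeq 2500. Relative association constants were derived from changes in read counts for each RNA species versus the control reaction and normalised to the cognate motif.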
As to B1, the binding signal was 0.0806 KA relative to UGCAUGU.

In the case of B2, the binding signal was 0.129 KA relative to UGCAUGU.

In the case of B3, the binding signal was 0.0724 KA relative to UGCAUGU. Regarding B4, the binding signal is 0.0748 KA relative to UGCAUGU. For B5, the binding signal was 0.0751 KA relative to UGCAUGU.

As to B6, the binding signal is 0.0951 KA relative to UGCAUGU.

For B7, the binding signal was 0.119 KA relative to UGCAUGU.

Take B8: the binding signal is 0.183 KA relative to UGCAUGU. On to B9, for which the binding signal is 0.0753 KA relative to UGCAUGU.

As to B10, the binding signal was 0.0672 KA relative to UGCAUGU.

In the case of B11, the binding signal was 0.0677 KA relative to UGCAUGU. In the case of B12, the binding signal was 0.0642 KA relative to UGCAUGU. The figure for B13 is 0.0799 KA relative to UGCAUGU. The figure for B14 is 0.114 KA relative to UGCAUGU.

For B15, the binding signal was 0.143 KA relative to UGCAUGU.

Take B16: the binding signal was 0.0896 KA relative to UGCAUGU. For B17, the binding signal is 0.0887 KA relative to UGCAUGU. As for B18, the binding signal was 0.0723 KA relative to UGCAUGU. Turning to B19, the binding signal was 0.0941 KA relative to UGCAUGU. With B20, the binding signal was 0.115 KA relative to UGCAUGU. For B21, the binding signal is 0.0865 KA relative to UGCAUGU.

With B22, the binding signal is 0.103 KA relative to UGCAUGU. Turning to B23, the binding signal is 0.132 KA relative to UGCAUGU.

In the case of B24, the binding signal is 0.12 KA relative to UGCAUGU.

Consider B25, for which the binding signal is 0.101 KA relative to UGCAUGU. Consider B26, for which the binding signal is 0.11 KA relative to UGCAUGU. For B27, the binding signal was 0.0673 KA relative to UGCAUGU. Take B28: the binding signal is 0.0856 KA relative to UGCAUGU. The value for B29 was 0.0623 KA relative to UGCAUGU; that for B30 was 0.112 KA relative to UGCAUGU.

Take B31: the binding signal was 0.0527 KA relative to UGCAUGU.
